# Data published in PubChem BioAssay AID463173 (ICCB-Longwood Screening Facility, Harvard Medical School, 2010).
# Out of some 52,000 compounds screened, about 1,700 (3.3%) were called active. Cut-off read from the data, not from the text of the source: active = survival mostly below about 52% (no sharp cut-off); inactive = mostly above about 56%. The list shows a part of the results.
# System: Wild type
# Experiment: S. aureus survival, RN4220 and DeltatarO strains – OD600, teichoic acid synthesis inhibitors, primary screen (AID 463173)
# Details: S. aureus RN4220 wild type/DeltatarO growth, OD600, 18 h, hits give low values, screened at 18.75 µg/mL (by protocol)
row,SMILES,survival
1,O=C(O)CCn1cnc2sc3c(c2c1=O)CCCC3,inactive: 80%
2,O=C1Cc2cc(S(=O)(=O)Nc3ccc(OC(F)(F)F)cc3)cc3c2N1CCC3,inactive: 148%
3,Cc1ccccc1NC(=O)C1C2CCCCC21 (stereo not drawn),inactive: 110%
4,Cc1ccccc1OCC(=O)Nc1ccc2nc(SCC(=O)N3CCCC3)sc2c1,inactive: 48%
5,COc1ccc(S(=O)(=O)c2nnn(-c3cccc(Cl)c3)c2N)cc1,inactive: 69%
6,CCOC(=O)c1cc(-c2ccc(OC)c(S(=O)(=O)N3CCN(c4ccccc4)CC3)c2)on1,inactive: 69%
7,COCCn1ccc2c(OCC(=O)Nc3cccc(C(F)(F)F)c3)cccc2c1=O,inactive: 78%
8,COc1ccc(N2CC(NC(=O)C(c3ccccc3)c3ccccc3)CC2=O)cc1 (stereo not drawn),inactive: 91%
9,COc1cccc(CNC(=O)c2ccc3c(c2)sc2nc(-c4cccc(OC)c4)cn23)c1,inactive: 74%
10,CCOC(=O)c1c(S(=O)(=O)N2CCC(C(=O)NCc3ccccc3Cl)CC2)c(C)n(C)c1C,inactive: 83%
11,Cc1cccc(N2CCN(C(=O)c3cnn(-c4ccccc4)c3C3CCN(C(=O)OC(C)(C)C)CC3)CC2)c1C,inactive: 72%
12,CCOC(=O)c1c(NC(=O)C(C)Sc2cn(CCNC(=O)c3ccc(OCC)cc3)c3ccccc23)sc2c1CCC2 (stereo not drawn),inactive: 79%
13,CCOC(=O)c1ccc(NC(=O)Cn2nc(C)c3nn(-c4ccc(Cl)cc4)c(C)c3c2=O)cc1,inactive: 81%
14,O=C1c2ccccc2NC(c2ccncc2)N1c1ccccn1 (stereo not drawn),inactive: 103%
15,CCc1nc2nc(C)cc(Nc3cc(C)ccc3C)n2n1,inactive: 73%
16,Cc1ccc(Nc2ncnc3c2nc2n3CCCC2)cc1F,inactive: 67%
17,Clc1ccc(CSc2nncn3c2cc2occc23)cc1,inactive: 66%
18,COc1ccccc1CNC(=O)C1CCN(S(=O)(=O)Cc2ccccc2)CC1,inactive: 100%
19,Cc1nc2nc[nH]n2c(=O)c1NS(=O)(=O)c1ccc(Br)cc1,inactive: 84%
20,CC1=C(c2ccc(Cl)cc2)S(=O)(=O)N=C1N1CCN(c2cc(C)ccc2C)CC1,inactive: 116%
21,Cn1c(O)c(N=NC(=S)Nc2ccccc2)c2ccccc21,inactive: 121%
22,CCCN1CCCc2cc(CN(CCCN3CCOCC3)C(=O)Nc3ccc(Cl)c(Cl)c3)ccc21,inactive: 87%

row,SMILES,survival
1,COc1cccc(Cn2c(=O)n(Cc3ccccc3)c(=O)c3c2c2cc(OC)ccc2n3C)c1,inactive: 57%
2,Cc1cc(C)cc(-n2c(SCC(=O)Nc3ccc4c(c3)OCO4)nc3c([nH]c4ccccc43)c2=O)c1,inactive: 55%
3,COc1ccc(CNC(=O)C(=O)NCC(c2cccnc2)N2CCN(c3ccccc3)CC2)cc1 (stereo not drawn),inactive: 83%
4,Cc1cccc(N(C)S(=O)(=O)c2ccc3c(c2)NC(=O)CC(=O)N3)c1,inactive: 71%
5,O=C(COC(=O)c1ccccc1)Nc1ccc2c(c1)OCO2,inactive: 115%
6,Cc1cc2[nH]c(=O)c(=O)[nH]c2cc1S(=O)(=O)N1CCN(c2ccccc2F)CC1,inactive: 77%
7,COc1ccc(C2C3=C(CCCC3=O)NC3=C2C(=O)c2ccccc23)c(OC)c1OC (stereo not drawn),inactive: 113%
8,COc1ccc2sc(N(Cc3cccnc3)C(=O)CCc3ccccc3)nc2c1,inactive: 129%
9,COc1cc(C2CC(=O)c3c([nH]c(C(=O)OC4CCCC4)c3C)C2)cc(OC)c1OC (stereo not drawn),inactive: 81%
10,COCCn1nnnc1CN1CCC(Cc2ccccc2)CC1,inactive: 101%
11,CCN(C(=O)Cn1nc(Cc2ccncc2)c2ccccc2c1=O)c1ccc(OC)cc1,inactive: 74%
12,COC(=O)c1c(NC(=O)c2ccc(C(C)(C)C)cc2)sc2c1CCC(C)C2 (stereo not drawn),inactive: 71%
13,CCOc1ccc(CCNC(=O)c2ccc(CSCc3ccccc3C)o2)cc1OCC,inactive: 118%
14,O=C(CSc1nc(=O)n(Cc2ccncc2)c2c1CCC2)Nc1cccc(F)c1,inactive: 125%
15,Clc1ccc(-c2cn3cc(Cc4ccccc4)sc3n2)cc1,inactive: 81%
16,CCc1ccc(NC(=O)CNC(=O)Cn2c(C)cc3ccccc3c2=O)cc1,inactive: 119%
17,CCN(C(=O)C(NS(=O)(=O)c1ccc(Br)s1)c1ccccc1)c1ccc(C)c(C)c1 (stereo not drawn),inactive: 68%
18,CC(=O)ONC(=Nc1ccccc1C)c1nonc1N,inactive: 92%
19,Cc1cc(=O)n2nc(N)sc2n1,inactive: 106%
20,CC1(C)CC(=O)c2cc(-c3nc(-c4ccc(F)cc4)cs3)c(=O)[nH]c2C1,inactive: 91%
21,CC(C)c1ccc(-c2noc(C3CCCN(C(=O)Cc4cccs4)C3)n2)cc1 (stereo not drawn),inactive: 120%
22,O=C(Cc1ccc(Cl)cc1)Nc1ccc2oc(-c3ccc(F)cc3)nc2c1,inactive: 87%

row,SMILES,survival
1,Cc1cc(C)cc(OCC(=O)N2CCC(c3nc4ccccc4o3)CC2)c1,inactive: 75%
2,COC(=O)c1ccccc1NC(=O)C(Cc1ccccc1)N1Cc2ccccc2C1=O (stereo not drawn),inactive: 53%
3,COc1ccc(C)cc1NC(=O)Cn1cc(S(=O)(=O)N2CCC(C)CC2)c2ccccc2c1=O,inactive: 83%
4,CCC(=O)N1c2ccccc2CC1C(=O)NCCN1CCN(c2cc(Cl)ccc2C)CC1 (stereo not drawn),inactive: 64%
5,CCOc1ccc(NC(=O)c2c(NCc3cc(OC)c(OC)cc3OC)sc3c2CCCC3)cc1,inactive: 83%
6,CC(=O)c1cccc(NC(=O)c2ccc3c(c2)N(Cc2ccc(C)cc2)CCS3)c1,inactive: 81%
7,COc1ccc(CCNC(=O)Cn2c(=O)nc(-c3ccccc3)c3cc(Cl)ccc32)cc1OC,inactive: 70%
8,COc1ccc(NC(=O)Cn2c(-c3ccc(F)cc3)cc(C(C)=O)c2C)c(OC)c1,inactive: 128%
9,O=S(=O)(c1ccccc1)n1nc(-c2ccc(Cl)cc2)nc1NCc1ccccc1,inactive: 56%
10,CC(=O)Nc1ccc(S(=O)(=O)NCC2CCC(C(=O)NCCc3ccc(C)cc3)CC2)cc1 (stereo not drawn),inactive: 117%
11,COCCCNc1nc2c(c(=O)[nH]c(=O)n2C)n1CC(O)COc1ccc(Cl)cc1 (stereo not drawn),inactive: 75%
12,COc1cccc(CC(=O)Nc2c(C(=O)N3CCN(c4ccccc4F)CC3)oc3ccccc23)c1,inactive: 97%
13,CCCC1=Nc2cc(C(=O)NC3CCCCC3)ccc2Sc2ccc(C)cc21,inactive: 110%
14,Cc1cc(C)c2c(=O)c3c(oc2c1)C(=O)N(CCCOC(C)C)C3c1ccccc1F (stereo not drawn),inactive: 84%
15,N#C/C(=C\c1ccc(F)cc1)c1nc(-c2ccc(-c3ccccc3)cc2)cs1,inactive: 74%
16,CC1=C(C(=O)Nc2ccccc2C)C(c2ccccn2)n2ncnc2N1 (stereo not drawn),inactive: 75%
17,CCC(=O)C1=C(c2ccc(C)cc2)N(C(=O)CC)n2c(nnc2C2CCCCC2)S1,inactive: 76%
18,Cc1cccc(C)c1NC(=O)CS(=O)(=O)c1nc(-c2ccc(Cl)cc2)cn1-c1ccccc1,inactive: 84%
19,CC(=O)N1CCc2cc(S(=O)(=O)NC(CC(C)C)C(=O)Nc3cc(C)cc(C)c3)ccc21 (stereo not drawn),inactive: 87%
20,CCOC(=O)c1nc(NCc2ccc(Cl)cc2)c2c(C)noc2n1,inactive: 76%
21,CCOc1ccc(Cn2c(=O)sc3ccccc32)cc1,inactive: 72%
22,Cc1cccn2c(=O)c3cc(C#N)c(=O)n(-c4nnc(SCc5ccc(Cl)cc5)s4)c3nc12,inactive: 83%

row,SMILES,survival
1,Cc1c(Cl)cccc1NC(=O)CCOc1ccccc1,inactive: 145%
2,Cc1ccc(NC(=O)CN2C(=O)COc3ccc(S(=O)(=O)NC4CCCC4)cc32)cc1N(C)C,inactive: 77%
3,Cc1ccc(C)c(Cn2c(=O)c3c(nc4n3CCN4c3ccccc3)n(C)c2=O)c1,inactive: 85%
4,CC1=C(C(=O)Nc2ccc(Cl)cc2)C(c2ccccc2)n2ncc(C(=O)Nc3ccccc3)c2N1 (stereo not drawn),inactive: 81%
5,Cc1cc(C)c2c(c1)c(C)cc1nnc(SCc3ccccc3C#N)n12,inactive: 67%
6,COc1ccc(NC(=O)CSc2nc(-c3cccc(C)c3)[nH]c2-c2ccccc2)cc1OC,inactive: 67%
7,Cc1ccc(C)c(-c2ccc(=O)n(Cc3c(F)cccc3Cl)n2)c1,inactive: 108%
8,CCSc1ncc(Cl)c(C(=O)Nc2sc3c(c2C(=O)NCCCOC)CCCC3)n1,inactive: 120%
9,CC(=O)N1CCc2c(sc3c2c(=O)n(CCc2ccccc2)c(=O)n3Cc2ccccc2C)C1,inactive: 74%
10,CC(=O)Nc1n[nH]c(-c2ccc(C)cc2)c1C,inactive: 108%
11,CC(C)Sc1ncc(Cl)c(C(=O)Nc2ccc(S(=O)(=O)N3CCCCC3)cc2)n1,inactive: 78%
12,CCN(CC)S(=O)(=O)c1ccc2c(c1)c(=O)c(C(=O)N1CCN(c3cc(Cl)ccc3C)CC1)cn2C,inactive: 83%
13,CN(C)C(=O)c1ccc(N(C)S(=O)(=O)c2ccccc2)cc1,inactive: 113%
14,CC(C)c1noc(-c2ccccc2OCC(=O)Nc2cccc([N+](=O)[O-])c2)n1,inactive: 80%
15,CCOc1ccc(Nc2c(S(=O)(=O)c3ccccc3)cnc3ccc(F)cc23)cc1,inactive: 61%
16,O=C(Oc1ccccc1F)c1nc(SCc2ccc(F)cc2)ncc1Cl,inactive: 88%
17,COc1cc(C2CC(=O)Oc3c2c(=O)[nH]c2ccccc32)cc(OC)c1OC (stereo not drawn),inactive: 72%
18,Cc1ccc(-c2cc3nc(-c4ccccc4)cc(C(F)(F)F)n3n2)cc1,inactive: 80%
19,CCOc1ccc(-c2c(C)nn3c(C)c(C(=O)Nc4cc(C)cc(C)c4)cnc23)cc1OCC,inactive: 133%
20,CC(=O)N1CCc2cc(Br)cc(S(=O)(=O)CCC(=O)N3CCN(c4ccccc4Cl)CC3)c21,inactive: 84%
21,COc1ccc(-c2nc3scc(CCNS(=O)(=O)c4ccc5c(c4)OCCO5)n3n2)cc1,inactive: 56%
22,Cc1ccc(CN(C(=O)COc2cc(C)c(Cl)c(C)c2)c2ccccn2)o1,inactive: 78%
